Measured values from patent US20040034006A1, “Method of inactivating viral particles in a blood product” (priority 2000, published 2004).

Columns and labels:
[1] = tested on: White blood cells
From the text: (§1) Similarly, there was no difference during storage of glucose consumption, lactate production, 2,3-DPG content and pH between the control and treated RBCC (data not shown). White blood cells have found to be highly effected by the present photodynamic treatment.

[2] = tested on: red blood cells (RBCC); settings: 25 uM
From the text: as §1

C[n+]1ccc(-c2c3nc(c(-c4cc[n+](C)cc4)c4ccc([nH]4)c(-c4cc[n+](C)cc4)c4nc(c(-c5ccccc5)c5ccc2[nH]5)C=C4)C=C3)cc1.[Cl-].[Cl-].[Cl-] [Sylsens, mono-phenyl-tri-(N-methyl-4-pyridyl)-porphyrin chloride]
capability of white blood cells to present antigens [1]: adversely affected | response of white blood cells to allogenic stimulation [1]: strongly reduced | 2,3-DPG content during storage, treated vs control RBCC [2]: no difference | glucose consumption during storage, treated vs control RBCC [2]: no difference | lactate production during storage, treated vs control RBCC [2]: no difference | pH during storage, treated vs control RBCC [2]: no difference
